Assay results published in the supplement of paper PMC4604168 (melanoma cell lines).
The list shows a part of the results. Repeats are few or missing, and single values can be far off.

system: IPC-298; experiment: cell count relative to DMSO control; melanoma cells; higher = more viable cells; details: library dose: standard library concentration; 72 h
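Note: cells treated in 1,536-well plates, then fixed and DAPI-stained, with nuclei counted from automated high-throughput microscope images.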

Compound	cell count
C=C(c1ccc(C(=O)O)cc1)c1cc2c(cc1C)C(C)(C)CCC2(C)C [Bexarotene] + O=c1cc(-c2cccc3c2Sc2ccccc2S3)oc(N2CCOCC2)c1 [KU55933] (first compound 10 µM, partner dose 5 µM)	92.3%
CS(=O)(=O)c1ccc(C(=O)Nc2ccc(Cl)c(-c3ccccn3)c2)c(Cl)c1 [vismodegib] + OCc1c[nH]c2ccccc12 [Indole-3-carbinol] (first compound 5 µM, partner dose 4 µM)	88.9%
CN(c1ncccc1CNc1nc(Nc2ccc3c(c2)CC(=O)N3)ncc1C(F)(F)F)S(C)(=O)=O + CC1(C)NC(=O)N(c2ccc([N+](=O)[O-])c(C(F)(F)F)c2)C1=O [nilutamide] (first compound 0.4 µM, partner dose 5 µM)	97.9%
CS(=O)(=O)c1ccc(C(=O)Nc2ccc(Cl)c(-c3ccccn3)c2)c(Cl)c1 [vismodegib] + NCC(=O)Nc1ccc(-n2nc(C(F)(F)F)cc2-c2ccc3c(ccc4ccccc43)c2)cc1 [OSU03012] (first compound 5 µM, partner dose 5 µM)	58.4%
CS(=O)(=O)c1ccc(C(=O)Nc2ccc(Cl)c(-c3ccccn3)c2)c(Cl)c1 [vismodegib] + C[C@]1(c2nc3c(C(N)=O)cccc3[nH]2)CCCN1 [Veliparib] (first compound 5 µM, partner dose 7 µM)	96.9%
NC1(c2ccc(-c3nc4ccn5c(=O)[nH]nc5c4cc3-c3ccccc3)cc2)CCC1 + C=CCn1c(=O)c2cnc(Nc3ccc(N4CCN(C)CC4)cc3)nc2n1-c1cccc(C(C)(C)O)n1 [MK1775] (first compound 2 µM, partner dose 0.1 µM)	99.9%
